B1: LINE1-full (parent)
chain: UACGUAGGUGGUUUUCCCCUGAUAGUGCUAAGGGGGCCUGGAAGUUUGGACUGGGCAGAGCUCAACACAGCGUGGCAAAGUGGCUGUGGCUAGACUGCCUCUCUGGAUUCCUCGUCACUCAGCAGGGCAUCUCUGAGAGAAAUGCC

Our source for the self-cleavage values is the RNAGym collection of RNA variant scans (doi:10.7554/elife.90254).

Read counts are not given, so values of variants with three or more changes are uncertain.

The variants in this data set derive from B1. Put plainly: self-cleavage, relative activity (ratio to wild type); higher = more cleavage; in vitro, sequencing; the parent is a self-cleaving ribozyme.
Take UACGUAAGUGGUUCUCCCCUGAUAGUGCUAAGGGGGCCUGGAAGUUUGGACUGGGCAGAGCUCAACACAGCGUGGCAAAGUGGCUGUGGCUAGGCUGCCUCUCUGGAUUCCUCGUCACUCAGCAGGGCAUCUCUGAGAGAAAUGCC [G7A U14C A94G]: the self-cleavage amounted to 0.31. UACGUAAGUGGUUUUCCCUUGAUAGUGCUAAGGGGGCCUGGAAGUUUGGACUGGGCAGAGCUCAACACAGCGUGGCAAAGUGGCUGUGGCUAGACUGCCUCUCUGGAUUCCUCGUCACACAGCAGGGCAUCUCUGAGAGAAAUGCC [G7A C19U U119A]: the self-cleavage is 1.36. For the variant UACGUACGUGGUUUUCCCGUGAUAGUGCUAAGGGGGCCUGGAAGUUUGGACUGGGCAGAGCUCAACACAGCGUGGCAGAGUGGCUGUGGCUAGACUGCCUCUCUGGAUUCCUCGUCACUCUGCAGGGCAUCUCUGAGAGAAAUGCC [G7C C19G A78G A121U], the self-cleavage turned out to be 1.2. As to UACGUAAGUGGUUUUCCCCUGAUAGUGCUUAGGGGGCCUGGAAGUUUGGACUGGGCAGAGCUCAACACAGCGUGGCAAAGUGGCUGCGGCUAGACUGCCUCUCUGGAUUCCUCGUCACUCAGCAGGGCAUCUCUGAGAGAAAUGCC [G7A A30U U87C], the self-cleavage was 0.17.

Consider UACGUAAGCGGUUUUCCCCUGAUAGUGCUAAGGGGGCCUGGAAGUUUGGACUGGGCAGAGCUCAACACAGCGUGGCAAAGUGGCUGUGUCUAGACUGCCUCUCUGGAUUCCUCGUCACUCAGCAGGGCAUCUCUGAGAGAAAUGCC [G7A U9C G89U], for which the self-cleavage is 0.08. For UACGUAAGUGGUUUUCCCCUGAUAGUGCUAUGGGGGCCUGAAAGUUUGGACUGGGCAGCGCUCAACACAGCGUGGCAAAGUGGCUGUGGCUAGACUGCCUCUCUGGAUUCCCCGUCACUCAGCAGGGCAUCUCUGAGAGAAAUGCC [G7A A31U G41A A59C U112C], the self-cleavage came to 0.84. Turning to UACGUAAGUGGUUUUCCCCUGAUAGUGCUAAGGGGGCCCGGAAGUUUGGACUGGGCAGAGCUCUACACAGCGUGGCAAAGUGGCUGUGGCUAGACUGCCUCUCUGGGUUCCUCGUCACUCAGCAGGGCAUCUCUGAGAGAAAUGCC [G7A U39C A64U A107G], the self-cleavage amounted to 0.22.

As to UACGUAAGUGGUUAUCCCCUGAUAGUGCUAAGGGGGCCUGGGAGUUUGGACUGGGCAGAGCUCAACACAGCGUGGCAAAGUGGCUGUGGCUAGACUGCCUCUCUGGAUUCCUCGUCACUCAGCAGGGCUUCUCUGAGAGAAAUGCC [G7A U14A A42G A129U], the self-cleavage was 0.79. Regarding UACGUAAGUGGUUCUCCCCAGAUAGCGCUAAGGGGGCCUGGAAGUUUGGACUGGGCGGAGCUCAACACAGCGUGGCAAAGCGGCUGUGGCUAGACUGCCUCUCUGGAUUCCUCGUCACUCAGCAGGGCAUCUCUGAGAGAAAUGCC [G7A U14C U20A U26C A57G U81C], the self-cleavage is 0. Consider UACGUAAGUGGUUUUCCCCUGAUAGUGCUAAGGGGGCCUGGAAGUCUGGACUGGGCAGAGCUCAACACGGCGUGGCAGAGUGGCUGAGGCUAGACUGCCUCUCUGGAUUCCUCGUCACUCAGCAGGGCAUCUCUGAGAGAAAUGCC [G7A U46C A69G A78G U87A], for which the self-cleavage stood at 0.1. For UACGUACGUGGUUUUCCCCUGGUAGUGCUAAGGGGGCCUAGAAGUUUGGACUGGGCAGAGCUCAACACAGCGUGGCAAAGUGGCUGUGGCUAGACUGCCUCUCUGGAUUCCUCGUCACUCAGCAGGGCGUCUCUGAGAGAGAUGCC [G7C A22G G40A A129G A141G], the self-cleavage stood at 1.46. In the case of UACGUAAGUGGUUUUCCCCUGAUAGUGCUAAGGGGGCCUGGAAGUUUGGACUGGGCAGAGCUCAACACAGCGUGGCAAAGUGGCUGUGGCUAGACAGCCUCUCUGGAUUCCUCGUCACUCAGCAGGGCAUCUCUGAGAGAAAUGCU [G7A U96A C146U], the self-cleavage is 0.02. Turning to UACGUAAGUGGUUUUCCCCUGAUGGUGCUAAGGGGGCCUGGAAGUUUGGACUGGGCAGAGCUCAACACAGCGUGGCAAAGUGGCUGUGGCUAGACUGCCUCUCUGGACUCCUCGUCACUCAGCAGGGCAUCUCUGAGAGAGAUGCC [G7A A24G U108C A141G], the self-cleavage is 0.35.

On to UACGUAAGUGGUUUUCCCCUGAUAGUGCUAAGGGGGCCUGGAAGUUUGGACUGGGCGGAGCUCAACACGGCGUGGCAAAGUGGCUGUGGCUAGACUGCCUCUCUGGAUUCCUCGUCACUCAGCAGGGCAUCUCUGAGAGAAAUGCC [G7A A57G A69G], for which the self-cleavage amounted to 0.4. Take UACGUAAGUGGUUUUCCCCUGAUAGUGCUAAGGGGGCCUGGAAGUUUGGACUGGGCAGAGCUCAACACAGCGUGGCAAAGUGGCCGCGGCUAGACUGCCUCUCUGGAUUCCUCGUCACUCAGCAGGGCAUCUCUGAGAGAAAUGCC [G7A U85C U87C]: the self-cleavage came out at 0. Turning to UACGUAAGUGGUUUUCCCCUGAUAGUGCUAAGGGGGCCUGGAAGUCUGGACUGGGCAGAGCUCAACACAGCGUGGCAGAGUGGCUGUGGCUAGACUGCCUCUCUGGAUUCCUCGUCACUCAGCAGGGCAUCUCUGAGAGAAAUGCC [G7A U46C A78G], the self-cleavage stood at 1.17.

Regarding UACGUACGUGGUUUUCCCCUGAUAGUGCUAAGGGGGCCUGGAAGUUUGGACUGGGCUGAGCUCAACACAGCGUGGCAGAGUGGCUGUGGCUAGACUGACUCUCUGGAUUCCUCGUCGCUCAGCAGGGCAUCUCUGAGAGAAAUGCC [G7C A57U A78G C98A A117G], the self-cleavage amounted to 0.07. UACGUAAGUGGUUUUCCCCUGAUAGUGCUAAGGGGGCCUGGAAGUUAAGACUGGGCAGAGCUCAACACAGCGCGGCAAAGUGGCUGUGGCUAGACUGCCUCUCUGGAUUCCUCGUCACUCAGCAGGGCAUCUCAGAGAGAAAUGCC [G7A U47A G48A U73C U134A]: the self-cleavage came to 0.89. With UACGUAAGUGGUUUUCCCCUGAUAGUGCUAAGGGGGCCUGGGAGUUUGGACUGGGCAGAGCUCAACACAGCGUGGCAAAGUGGCUGUGGCUUGACUGCCUCUCUGGAUUCCUCGUCACUCAGCAGGGCAUCUCUGAGAGAAGUGCC [G7A A42G A92U A142G], the self-cleavage was 0.44. As to UACGUAAGUGGUUCUCCCCUGAUAGUGCUAAGGGGGCCUGGAAGUUUGGACUGGGCAGAGCUCAACACAGCGUGGCAAAGUGGCUGUGGCUAGACUGCUUCUCUGGAUUCCUCGUCACUCAGCAGGGCAUCUCUGAGAGAAAUGCC [G7A U14C C99U], the self-cleavage was 0.58. As to UACGUAAGUGGUCUUCCCCUGAUAGUGCUAAGGGGGCCUGGAAGUUUGGACUGGGCAGAGCUCAACACAGCGUGGCAAAGUGGCUGUGGCUAGACUGCCUCUCCGGAUUCCUCGUCACUCAGCAGGGCAUCUCUGAGAGAAAUGCC [G7A U13C U104C], the self-cleavage stood at 0.73. Consider UACGUAAGUGGUUUUCCCCAGAUAGUGCUAAGGGGGCCUGGAAGUUUGGACUGGGCAGAGCUCAACACAGCGUGGCAAAGUGGCUGUGGCUAGACUGCCUCUCUGGAUUCCUCGUCACUCAGCAGGGCAUCUCUGAGAGAGAUGCC [G7A U20A A141G], for which the self-cleavage is 0.83. Regarding UACGUAAGUGGUUUUCCCCUGAUAGCGCUAAGGGGGCCUGGAAGUUUGGACUGGGCAGAGCUCAACACAGCGUGGCAAAGUGGCUGUGGCUAGACUGCCUCUCUGGAUUCCUCGUCACUCAGCAGGGCAUCUCUGAGGGAAAUGCC [G7A U26C A138G], the self-cleavage stood at 1.23. Under UACGUAAGUGGUUUUCCCCUGAUAGUGCUAAGGGGGCCAGGAAGUUUGGACUGGGCAGAGCUCAACACUGCGUGGCAAAGUGGCUGUGGCUAGACUGCCUCUCUGGAUUCCUCGUCACUCAGCAGGGCAUCUCUGAGGGAAAUGCC [G7A U39A A69U A138G] stands 0.02; under UACGUAAGUGGUUUUCCCCUGAUAGUGCUAAGGGGGCCUGGAAGUUUGGACUGGGCAGAGCUCAACACAGCGUGGCAAAGUGGCUGUGGCUAGACUGCCUCUCUGGAUUCCUCGCCACUCAGCAGGGCAUCUCUGAGAGAAACGCC [G7A U115C U143C], 2.19. For UACGUAAGUGGUUUUCCCCUGAUAGUGCUAAGGGGGCCUGGAAGUUUGGACUAGGCAGAGCUCAACACAGCGUGGCAAAGUGGCUGUGGCUAGACUGCCUCUCUGGAUUCCUCGUCACUCAGCGGGGCAUCCCUGAGAGAAAUGCC [G7A G53A A124G U132C], the self-cleavage came out at 0.51. In the case of UACGUAAGUGGGUUUCCCCUGAUAGUGCUAAGGGGGCCUGGAAGAUUGGACUGGGCAGAGCUCAGCACAGCGUGGCAAAGUGGCUGUGGCUAGACUGCCUCUCUGGAUUCCUCGUCUCUCAGCAGGGCAUCUCUGAGAGAAAUGCC [G7A U12G U45A A65G A117U], the self-cleavage came out at 0.23. Under UACGUACGUGGUUUUCCCCUGAUAGUGCUAAGGGGGCCUGGAAGUUUGGACUGGGCAGAGCUCAACACAGCGUGGCAAAGUGGCUGUGGCUGGACUGCCUCUCUGGAUUCCUCGUCACUCAGCAGGGCAUCUCUGAGAGAAGUGCC [G7C A92G A142G] stands 0.21; under UACGUAAGUGGGUUUCCCCUGAUAGUGCUAAGGGGGCCUGGAAGUAUGGACUGGGCAGAGCUCAACACAGCGUGGCAAGGUGGCUGUGGCUAGACUGCCUCUCUGGAUUCCUCGUCACUCAGCAGGGCAUCUCUGAGAGAAAUGCC [G7A U12G U46A A79G], 0.51; under UACGUAAGUGGUUUUCCCCUGAUAGUGCUAAGGGGGCCUGGAAGUUUGAGCUGGGCCGAGCUAAACACAGCGUGGCAAAGUGGCUGUGGCUAGACUGCCUCUCUGGAUUCCUCGUCACUCAGCAGGGCAUCUCUGAGAGAAAUGCC [G7A G49A A50G A57C C63A], 0.09.

As to UACGUACGUGGUUUUCCCCUGAUAGUGCUAAGGGGGCCUGGAAGUUUGGACUGGGCAGAGCUCAACUCAGCGUGGCAAAGUGGCUGUGGCUAGACUGCCUCUCUGGAUUCCUCGUCGCUCAGCAGGGCAUCUCUGAGAGAAAUGCC [G7C A67U A117G], the self-cleavage stood at 0.45.

UACGUAAGUGGUUUUCCCCUGAUAGUGCUAAGGGGACCUGGAAGUUUGGACUGGGCAGAGCUCAACACAGCGUGGCAAAGUGGCUGUGGCUAGACUGCCUCUCUGGAUUCCUCGUCGCUCAGCAGGGCAUCUCUGAGAGAAAUGCC [G7A G36A A117G]: the self-cleavage was determined as 1.2. Turning to UACGUAAGUGGUUUUCCCCUGAUAGUGCUAAGGGGGCCUGGAAGUUUGGACUGGGCAGAGCUCAACACAGCGUAGCGAAGUGGCUGUGGCUAGACUGCCUCUCUGGAUUCCUCGUCACUCAGCAGGGCAUCUCUGAGAGAAAUGCC [G7A G74A A77G], the self-cleavage stood at 1.23. UACGUAAGUGGUUUUCCCCUGAUAGUGCUAAGGGGGCCUGGAAGUUUGGACUGGGCAGAGCUCAUCACAGCGUGGCAAAGUGGCUGUGGCUAGACUGCCUCUCUGGAUUCCUCGUCACUCAUCAGGGCAUCUCUGAGAGUAAUGCC [G7A A65U G122U A140U]: the self-cleavage turned out to be 0.2. Under UACGUACGUGGUUUUCCCCUGAUAGUGCUAAGGGGGCCUGGAAGUUUGGACUGGGCAGAGCUCUACACAGCGCGGCAAAGUGGCUGUGGCUAGACUGCCUCUCUGGAUUCCUCGUCACUCAGCAGGGCAUCUCUGAGAGAAAUGCC [G7C A64U U73C] stands 1.53; under UACGUAAGUGGCUUUCCCCUGAUAGUGCUAAGGGGGCCUGGUAGUUUGGACUGGGCAGAGCUCAACACAGCGUGGCAAAGUGGCUGUGGCUAGACUGCCUCUCUGGAUUCCUCGUCACUCAGCAGGGCAUCUCUGAGAGAAAUGCC [G7A U12C A42U], 1.1. In the case of UACGUAAGUGGUUUUCCCCUGAUAGUGCUAAGGGGGCCUGGAAGUUUGGACUGGGCAGAGCUCAACACAGCGUGGCAAAGUGGCUGUGGCUAGACUGCCUCUCUGGAUUCCUCGUCGCUCAGCAGGGCGUCUCUGAGAGAAAUGCC [G7A A117G A129G], the self-cleavage was found to be 1.06. Under UACGUAAGUGGUUUUCCCCUGAUAGUGCUAAGGGGGCCUGGAAGUUUGGACUGGGCAGAGCUCAGCACAGCGUGGCAAAGUGGCUGUGGCUAGACUGCCUCCCUGGAUUCCUCGUCACUCAGCAGGGCAUCUCUGAGAGAAAUGCC [G7A A65G U102C] stands 0; under UACGUAAGUGGUUUCCCCCUGAUAGUGCUAAGGGGGCCUGGAAGUUUGGACUGGGCAGAGCCCAACACAGCGUGGCAAAGUGGCUGUGGCUCGACUGCCUCUCUGGAUUCCUCGUCACUCAGCAGGGCAUCUCUGAGAGAAAUGCC [G7A U15C U62C A92C], 0.
